The campaign covered roughly 45,000 compounds. About 65 (0.1%) were called active. Calls follow the shape of the dose curve; as a rule, active = well fitted activation curve with a large enough effect; inconclusive = small, poorly fitted or top-dose-only effect; inactive = no such curve, though single readings can be large or run the other way. This is one part of the list.
Target: Galactocerebrosidase (Homo sapiens) (UniProt P54803)
Assay: A Novel Cell-Based Assay to Identify Small Molecules for B -Galactocerebrosidase; also: 0% is about no effect; nearly all actives have a fitted effect of over 65% in size
Conditions: 145M-Twi-hGALC-G270D cells (Twitcher mouse brain line with human GALC G270D), HMU-beta-Gal fluorescence, 48 h; series mostly up to 57.5 µM; activation: at the top concentration
Summary of the method: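 Fluorescence readout: HMU-β-gal cleavage by mutant GALC (0.1 mM final, citrate/phosphate pH 5.2 with 1 mg/mL taurocholate), stopped with carbonate/bicarbonate plus Triton X-100. Cells: murine Twitcher 145M-Twi expressing human G270D GALC; qHTS for activators.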

Chain of UniProt P54803 (P54803 whole entry, looked up): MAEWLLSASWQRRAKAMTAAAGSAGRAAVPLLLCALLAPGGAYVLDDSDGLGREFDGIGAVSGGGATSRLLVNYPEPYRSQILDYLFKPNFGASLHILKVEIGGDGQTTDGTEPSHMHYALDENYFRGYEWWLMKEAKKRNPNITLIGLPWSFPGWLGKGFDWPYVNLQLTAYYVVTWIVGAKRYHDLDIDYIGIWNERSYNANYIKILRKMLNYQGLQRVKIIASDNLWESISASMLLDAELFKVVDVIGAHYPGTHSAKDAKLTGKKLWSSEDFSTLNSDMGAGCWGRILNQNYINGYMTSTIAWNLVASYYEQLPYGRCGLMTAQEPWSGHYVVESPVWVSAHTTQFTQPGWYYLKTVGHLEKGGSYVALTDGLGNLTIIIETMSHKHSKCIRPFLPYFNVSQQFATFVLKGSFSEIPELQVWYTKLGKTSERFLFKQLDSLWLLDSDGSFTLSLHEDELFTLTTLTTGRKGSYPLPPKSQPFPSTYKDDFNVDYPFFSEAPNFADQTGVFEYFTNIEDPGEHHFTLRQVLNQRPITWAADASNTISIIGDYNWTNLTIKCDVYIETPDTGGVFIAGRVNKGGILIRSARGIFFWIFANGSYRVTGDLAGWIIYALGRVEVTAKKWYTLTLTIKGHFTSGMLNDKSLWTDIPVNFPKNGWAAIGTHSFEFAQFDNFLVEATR

activation, inactive:
Cc1ccc(C(=O)Nc2cccc(OCc3cc(=O)n4c5c(sc4n3)CCCC5)c2)cc1 -0.916%
COc1cc(C(=O)N2CCN(c3ccc(Nc4ccc(C)cc4)nn3)CC2)cc(OC)c1OC 1.73%
CCCN1C(=O)c2[nH]nc(-c3ccccc3O)c2C1c1ccc(OCc2ccccc2)c(OC)c1 (stereo unspecified) -4.66%
C[C@@H](O)[C@H]1C(=O)N2C(C(=O)O)=C([C@H]3CCCO3)S[C@H]12 -11.2%
COC(=O)Cn1nc(C)c2c(C)n(-c3ccccc3)nc2c1=O -9.57%
CCCc1cnc2c(c1SCC(=O)N1CCC(C)CC1)c(=O)n(C)c(=O)n2C -10.9%
O=C(NCCc1ccccc1)c1sc2ncccc2c1-n1cccc1 -27.8%
CCC1CCCCN1C(=O)Cn1c(=O)oc2cc(S(=O)(=O)N3CCCCC3)ccc21 (stereo unspecified) 15.7%
Cc1ccc(NC(=O)c2cc3cc(C)ccc3n2C)cc1 -11%
NC(=O)CSc1oc(-c2ccco2)nc1S(=O)(=O)c1ccc(Cl)cc1 -26.6%
CCOC(=O)c1ccc(NC(=O)Cn2c(=O)cc(C)c3c(C)nn(-c4cccc(F)c4)c32)cc1 -9.7%
OCCN1CCN(CC/C=C2/c3ccccc3Sc3ccc(C(F)(F)F)cc32)CC1 -21.2%
Cc1ccc(NC(=O)C(Cc2ccccc2)NS(=O)(=O)c2ccc3c(c2)oc(=O)n3C)cc1F (stereo unspecified) 1.63%
O=C(Nc1nc2n(n1)C(c1ccc(F)cc1)C=C(c1ccccc1)N2)c1ccc(Cl)cc1 (stereo unspecified) -4.22%
CCC(=O)N1c2ccccc2CC1C(=O)NCc1cccc(C)c1 (stereo unspecified) -1.73%
CCN(CC)CCCNC(=O)Cn1nc(C)n2c(cc3sccc32)c1=O -16.6%
Cc1ccccc1-c1nc(CS(=O)CC(=O)N2CCN(c3cc(Cl)ccc3C)CC2)c(C)o1 (stereo unspecified) -6.6%
Cc1nn(S(=O)(=O)c2ccccc2)c(C)c1S(=O)(=O)N1CCC(C)CC1 -31.3%
CCc1ccccc1NC(=O)Cn1ccn(-c2cc(C)cc(C)c2)c(=O)c1=O -0.928%
COc1ccc(NC(=O)c2ccc3oc(=O)c(S(=O)(=O)c4ccc(C)cc4)cc3c2)cc1OC -24.1%
CCOc1cccc(C2Nc3ccccc3-c3cc(C)nn32)c1O (stereo unspecified) -18.2%
Clc1cccc(CSc2nncn3c2cc2sccc23)c1 0.56%
COc1ccc(OC)c(C(=O)c2c(N)c(-c3nc(-c4ccc(C)c(C)c4)cs3)c3ccccn23)c1 0.412%
Cc1ccc(C(=O)c2oc3ccccc3c2NC(=O)Cc2coc3cc(C)ccc23)cc1 -20%
CCCCc1ccc(NC(=O)Cn2nnc3sc4c(c3c2=O)CCC(C)C4)cc1 (stereo unspecified) -11.2%
COc1ccc(Cn2nnc3c(=O)[nH]c(C4CCCN(C(=O)c5ccc(C)cc5)C4)nc32)cc1 (stereo unspecified) -9.68%
COc1ccc(CCNC(=O)Cn2c(=O)n(-c3ccc(C)c(C)c3)c(=O)c3c(C)c(C)sc32)cc1OC -9.69%
CCCCCCCCCCCCCCCCCCNC(=O)OC1CCN(C(=O)OC[C@H](COC(=O)N(Cc2cccc[n+]2CC)C(=O)c2ccccc2OC)OC)CC1 -11.6%
Cc1ccc(NC(=O)CSc2nc(C)c(Cc3ccccc3)c(=O)[nH]2)cc1C -18.5%
CCn1c(=NC(=O)c2ccc3c(c2)OCCO3)sc2c(C)ccc(OC)c21 -38.4%
CCOC(=O)C1(C)C=C(Nc2ccc(Br)cc2)C(=O)N1c1ccccc1 (stereo unspecified) -6.1%
O=C(O)CCCCCCCC(=O)O -17%
COc1cc(C(=O)CC2(O)C(=O)N(Cc3ccccc3Cl)c3ccccc32)cc(OC)c1OC (stereo unspecified) -37.7%
Cc1ccc2sc(N(Cc3cccnc3)C(=O)CCOc3ccccc3)nc2c1C -10.7%
Cc1c(C(=O)N(Cc2ccc(N(C)C)cc2)C2CCS(=O)(=O)C2)oc2ccccc12 (stereo unspecified) -7.03%
O=C(c1ccc2c(c1)N(Cc1ccccc1)C(=O)c1ccccc1S2(=O)=O)N1CCN(c2ccccc2)CC1 13.7%
COc1ccc(OC)c(C2NC(=O)NC(C)=C2C(=O)Nc2cc(C)cc(C)c2)c1 (stereo unspecified) -16.7%
COc1ccc(CCNC(=O)Cc2c(C)c3c(cc(C)c4c(C)coc43)oc2=O)cc1OC -1.02%
Cc1ccc(OCC(=O)Nc2ccc(OCc3cc(=O)n4cccc(C)c4n3)cc2)cc1C -1.59%
Cc1nn(C(C)C(=O)NC2CCCCC2)c(=O)c2c1sc1ccccc12 (stereo unspecified) -12.3%
Cc1ccc(-c2nnc(Nc3ccc(Br)cc3)c3ccccc23)cc1S(=O)(=O)N1CCN(C)CC1 8.37%
COc1ccc(CC(=O)NC2CC(=O)N(c3cccc(F)c3)C2)cc1 (stereo unspecified) 2.72%
CCN(c1ccccc1)C(CNS(=O)(=O)c1ccccc1)c1ccccc1 (stereo unspecified) -2.07%
COc1ccc(CCNC(=O)c2ccc3c(c2)CCN3S(C)(=O)=O)cc1 -15.6%
COc1ccc2c(CNCc3ccc(C)o3)c(C(=O)O)n(Cc3ccccc3C)c2c1 -17.1%
CCN(C(=O)C(=O)Nc1ccc2nc3n(c(=O)c2c1)CCCCC3)c1ccc(F)cc1 0.401%
COc1ccc(C2CC(=O)c3cc(-c4nc(-c5cccc([N+](=O)[O-])c5)cs4)c(=O)n(-c4ccc(C)c(C)c4)c3C2)cc1 (stereo unspecified) -4.34%
Cc1nnc(NC(=O)CSc2nc3c([nH]c4ccccc43)c(=O)n2-c2ccccc2)s1 -12.2%
O=C(Nc1c(C(=O)N2CCN(c3ccc(F)cc3)CC2)oc2ccccc12)c1c(F)cccc1F -25%
CC(O)CN(CCN(CC(C)O)CC(C)O)CC(C)O (stereo unspecified) -11.9%
CCC1CCCCN1CCCNC(=O)CN1C(=O)c2cccnc2Oc2ccc(Cl)cc21 (stereo unspecified) -4.33%
Cc1sccc1Br -12.3%
O=C(Cn1cc(SCc2ccc(C(F)(F)F)cc2)c2ccccc21)N1CCCCCC1 -12.6%
COc1ccc(Cn2c(CNC(=O)c3ccc(N(C)C)cc3)nc3cccnc32)cc1 -12.9%
CC(C)Oc1ccc(C(=O)Nc2ccc3c(c2)CCCN3C(=O)c2cccs2)cc1 -15.8%
CCC(Sc1nc2ccccc2c2nc(CCn3cncc3C)nn12)C(=O)Nc1cccc(OC)c1 (stereo unspecified) -4.91%
Cc1ccc(NC(=O)c2oc3ccc(S(=O)(=O)N4CCCCCC4)cc3c2C)cc1Cl -5.01%
CC(C)CSc1nnc(-c2ccccc2)c(-c2ccccc2)n1 -2.99%
Cc1cc(C)c2nc(N3CCCC(C(=O)NCc4cccc(Br)c4)C3)sc2c1 (stereo unspecified) -6.25%
Fc1ccc(Nc2nc3ccccc3c3nncn23)c(Cl)c1 -6.62%
COc1ccc(CCNC(=O)c2ccc(Cn3c(=O)c4ccccc4n(Cc4cc(C)ccc4C)c3=O)cc2)cc1OC -18.5%

— PubChem BioAssay AID1159614 (National Center for Advancing Translational Sciences (NCATS), 2016)
